# Laboratory results as given in PubChem BioAssay AID504832 (National Center for Advancing Translational Sciences (NCATS), 2011).
# The whole screen tested about 310,000 compounds, of which about 18,000 (5.8%) were called active. Inconclusive results, whose numbers are uncertain, are shown with a selection of clear calls. The call rests on the fitted dose curve; in most records, active means well fitted inhibition curve with a large enough effect; inconclusive means small, poorly fitted or top-dose-only effect, or another doubt; inactive means no such curve, though single readings can be large or run the other way. No potency is given beside an inconclusive call; the fits are too rough.
# Test: Primary qHTS for delayed death inhibitors of the malarial parasite plastid, 48 hour incubation
# Conditions: P. falciparum luciferase growth in erythrocytes; series mostly up to 28.7 µM
# In short: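 Parasite viability was followed by luminescence of a genomically integrated firefly luciferase. Cultures held 0.1% parasitemia at 2% hematocrit (final), incubated under 5% CO2 at 37 C.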
# Potency means the concentration at half of the fitted maximal effect; tags describe the fitted curve by direction and shape.
row,SMILES,Potency
1,Fc1ccc(N2CCN(Cc3cn[nH]c3-c3ccccc3)CC2)cc1,"inconclusive [inhibitor, single point]"
2,N=C(N)SCc1cn(-c2ccccc2)nc1-c1ccc(Br)cc1,inactive
3,O=C(CSc1ccc(Cl)cc1)N1CCN(c2ccc(Cl)cc2[N+](=O)[O-])CC1,inactive
4,O=C(CN1CCN(c2ccc(F)cc2)CC1)Nc1cc(C(F)(F)F)ccc1Cl,"inconclusive [inhibitor, single point]"
5,CCn1c(SCC(=O)O)nnc1-c1cc2c(C)nn(-c3ccccc3)c2s1,inactive
6,CN(CC(=O)Nc1cccc(F)c1)C(=O)/C=C/c1cc(Br)ccc1OC(F)F,"inconclusive [inhibitor, single point]"
7,O=C(NCCN1CCOCC1)c1ccc(CSc2nc3ccncc3n2Cc2ccc(F)cc2)cc1,"inconclusive [inhibitor, partial curve, poor fit]"
8,CC(=O)Nc1ccc(N(C(=O)c2ccco2)C(C(=O)NC2CCCC2)c2ccncc2)cc1 (stereo not given),inactive
9,COc1ccc(CCn2c(-c3ccc(F)cc3)nc3c(c(=O)c4ccccc4n3C)c2=O)cc1OC,inactive
10,CC1CCc2c(sc3ncn(CCO)c(=O)c23)C1 (stereo not given),inactive
11,COc1ccc(CCN(C)C2CC(=O)N(c3ccccc3)C2=O)cc1OC (stereo not given),"inconclusive [inhibitor, full curve]"
12,CCOC(=O)c1ccccc1NC(=O)CN(c1ccc(OCC)cc1)S(C)(=O)=O,inactive
13,Cc1cccc(Cn2c(N3CCCCC3C)nc3c2c(=O)[nH]c(=O)n3C)c1 (stereo not given),"inconclusive [inhibitor, single point]"
14,O=C1CN(C(=O)CSc2nnnn2C2CC2)c2ccccc2N1,"inconclusive [inhibitor, single point]"
15,COc1ccccc1NS(=O)(=O)c1cc(NC(=O)c2ccncc2)ccc1N1CCCC1,"inconclusive [inhibitor, single point]"
16,Cc1cc(N2CCN(C(=O)c3ccco3)CC2)n2nc(-c3cccc(F)c3)cc2n1,"inconclusive [inhibitor, single point]"
17,COc1ccc(N(CC(C)C)S(=O)(=O)c2nnc(NC(=O)c3ccco3)s2)cc1,"inconclusive [inhibitor, partial curve, poor fit]"
18,Cc1nc2c(c(C)nn2-c2ccccc2)c(C)c1CCC(=O)N1CCC2(CC1)OCCO2,"inconclusive [inhibitor, partial curve]"
19,Cc1ccc(S(N)(=O)=O)cc1,inactive
20,COc1ccccc1C(=O)Nc1ccc2c(c1)nc(CCNC(=O)c1ccco1)n2C,"inconclusive [inhibitor, partial curve, poor fit]"
21,COc1ccc(N(CC(=O)Nc2ccc(C)c(F)c2)S(=O)(=O)c2c(C)noc2C)cc1,active: 13.1 µM
22,COc1ccccc1NC(=S)N(Cc1ccco1)Cc1cc2cccc(C)c2[nH]c1=O,"inconclusive [inhibitor, partial curve]"
23,Cc1n[nH]c(C)c1S(=O)(=O)N1CCCC(C(=O)N2CCN(c3ccc(Cl)cc3)CC2)C1 (stereo not given),active: 6.57 µM
24,O=C(c1ccccn1)c1conc1C(=O)c1ccc(Br)cc1,"inconclusive [inhibitor, full curve]"

row,SMILES,Potency
1,CCn1c(C)c(C)c2cc(C(=O)N3CCN(c4ccccc4)CC3)ccc21,inactive
2,CCOc1ccc(N(CC(=O)NCc2ccccc2)S(=O)(=O)c2ccc(C)cc2)cc1,"inconclusive [inhibitor, partial curve]"
3,C=CCn1c(SCC(=O)Nc2cc(C)on2)nc2sc(CC)cc2c1=O,inactive
4,CCc1ccc2oc(C(=O)Nc3cccnc3)c(C)c2c1,inactive
5,CCc1ccc(Nc2nc(C)cc(C)n2)cc1,inactive
6,CCCCCCCCCCOC(=O)Cn1c(COc2ccccc2C)[n+](C)c2ccccc21,"inconclusive [inhibitor, partial curve, poor fit]"
7,COc1cccc(/C=N/NC(=O)c2cccc([N+](=O)[O-])c2)c1OS(=O)(=O)c1ccccc1,"inconclusive [inhibitor, single point]"
8,COc1cc(C2=NOC(C(=O)Nc3ccc4c(c3)OCO4)C2)cc(OC)c1OC (stereo not given),active: 2.94 µM
9,O=C(Nc1ccnc(-c2cccnc2)n1)c1cccc(Cl)c1Cl,"inconclusive [inhibitor, single point]"
10,CCC(=O)N1CCN(c2ccccc2NC(=O)COc2ccccc2Cl)CC1,"inconclusive [inhibitor, partial curve]"
11,CCc1noc(C)c1C(=O)Nc1nc(-c2ccc(Cl)cc2Cl)cs1,inactive
12,CCCc1nc2ccccc2c(C(=O)OCC(=O)NCc2ccc3c(c2)OCO3)c1CC,active: 10.4 µM
13,CCc1nc2ccccc2c(C(=O)OCC(=O)N(CCOC)c2c(N)n(Cc3ccccc3)c(=O)[nH]c2=O)c1C,active: 13.1 µM
14,O=C(Nc1nc2ccc(F)cc2s1)c1cccc(S(=O)(=O)N2CCc3ccccc32)c1,inactive
15,COC(=O)c1ccccc1NC(=O)Cn1nnc(-c2ccc(OC)cc2)n1,inactive
16,O=C(COC(=O)C1CCN(c2ccc(C(F)(F)F)cn2)CC1)NCc1ccccc1,inactive
17,COc1cc2c(=O)n(Cc3ccco3)c(=O)n(CC(=O)c3ccc(Br)cc3)c2cc1OC,"inconclusive [inhibitor, single point]"
18,CC(C)(C)CC(=O)Nc1nnc(CCc2ccccc2)s1,"inconclusive [inhibitor, single point]"
19,CCOC(=O)c1ccc2c(c1)N(CC#N)C(=O)C(C)(C)O2,"inconclusive [inhibitor, single point]"
20,CC1(C)CC(=O)C=C(Nc2ccc(OCC(F)(F)C(F)F)cc2)C1,"inconclusive [inhibitor, single point]"
21,Cc1ccc(S(=O)(=O)N2CCOCC2)cc1C(=O)Nc1ccc(N2CCCCCC2)cc1,"inconclusive [inhibitor, single point]"
22,CCN(CC)C(=O)C1CCCN(c2ccc([N+](=O)[O-])cc2/C=N/NC(=O)c2ccc([N+](=O)[O-])cc2)C1 (stereo not given),"inconclusive [inhibitor, single point]"
23,CCc1cc(=O)oc2cc3oc(C)c(C)c3cc12,"inconclusive [inhibitor, partial curve, poor fit]"
24,COCCn1c(=O)[nH]c2cc(C(=O)Nc3cc(C)cc(C)c3)ccc2c1=O,"inconclusive [inhibitor, partial curve]"

row,SMILES,Potency
1,CN(C)C(CNC(=O)c1cccc(S(=O)(=O)N2CC3(C)CC2CC(C)(C)C3)c1)c1ccco1 (stereo not given),"inconclusive [inhibitor, single point]"
2,Cc1cc(C)c(S(C)(=O)=O)c(N(C)N)n1,inactive
3,COc1cc(-c2cc3nc(C)c(C)c(=O)n3[nH]2)cc(OC)c1OC,active: 10.4 µM
4,CCCCc1nnc(NC(=O)c2ccc(OCc3c(C)noc3C)cc2)s1,"inconclusive [inhibitor, single point]"
5,COc1cc(OC)cc(C(=O)Nc2ccc3nc4n(c(=O)c3c2)CCCC4)c1,"inconclusive [inhibitor, full curve, poor fit]"
6,O=C(CCNC(=O)c1ccc(Cl)cc1)Nc1c(F)c(F)cc(F)c1F,inactive
7,Cc1cc(C)nc(CCNC(=O)c2cc(COc3ccc(F)cc3Cl)on2)n1,"inconclusive [inhibitor, single point]"
8,COc1cc(OC)c2c(-c3ccccc3)cc(=O)oc2c1C(CCN1CCCC1)c1ccc2c(c1)OCO2 (stereo not given),"inconclusive [inhibitor, single point]"
9,O=C(O)c1cc(S(=O)(=O)N2CCN(C(=O)c3ccco3)CC2)c(Cl)cc1Cl,"inconclusive [inhibitor, single point]"
10,Cc1ccccc1Cn1nc(C)c(NC(=O)c2cc(-c3ccco3)on2)c1C,"inconclusive [inhibitor, partial curve, poor fit]"
11,CCOC(=O)c1ccc(COC(=O)c2cc3ccccc3oc2=O)o1,inactive
12,CN(C)CCCN1c2ccccc2C(C)(C)c2ccccc21,"inconclusive [inhibitor, partial curve]"
13,COc1ccccc1CNC(=O)COC(=O)c1c[nH]c2ccccc12,inactive
14,COc1ccc(NC(=O)COC(=O)C2CC2)cc1S(=O)(=O)N1CCCCC1,active: 13.1 µM
15,COc1ccc(C(=O)Nc2ccc(Cl)cc2F)cc1S(=O)(=O)N1CCCC1,active: 11.7 µM
16,O=C(COc1ccc(Cl)cc1Cl)NN=C1c2ccccc2-c2ccccc21,inactive
17,CCOc1ccccc1OCC(=O)O,inactive
18,CCOc1cc(NC(=S)NCC2CCCO2)c(OCC)cc1NC(=O)c1ccc(OC)cc1 (stereo not given),"inconclusive [inhibitor, partial curve, poor fit]"
19,Cc1ccc(C(=O)N/N=c2\oc3ccccc3cc2C(N)=O)cc1,inactive
20,CCCn1c(N)c(C(=O)CSc2nnc(C3CC3)n2-c2ccccc2)c(=O)[nH]c1=O,"inconclusive [inhibitor, partial curve, poor fit]"
21,CCN(CC)c1ccc(S(=O)(=O)N2CCOCC2)cc1NC(=O)CNCc1ccccc1,"inconclusive [inhibitor, partial curve, poor fit]"
22,Cc1cccc(CC(=O)c2c[nH]c3ccccc23)c1,inactive
